In article PMC4336329 (PLoS ONE, 2015):
Hit rate of the full screen: of about 310,000 compounds, about 2,200 (0.71%) showed an effect of 50% or more. Effects have a minus sign here. The list shows a part of the results.

biological target: human ether-à-go-go-related gene (hERG) potassium channel (human, UniProt Q12809); test: primary screen, population patch clamp on CHO cells stably expressing hERG
Sequence (Q12809 whole entry, looked up): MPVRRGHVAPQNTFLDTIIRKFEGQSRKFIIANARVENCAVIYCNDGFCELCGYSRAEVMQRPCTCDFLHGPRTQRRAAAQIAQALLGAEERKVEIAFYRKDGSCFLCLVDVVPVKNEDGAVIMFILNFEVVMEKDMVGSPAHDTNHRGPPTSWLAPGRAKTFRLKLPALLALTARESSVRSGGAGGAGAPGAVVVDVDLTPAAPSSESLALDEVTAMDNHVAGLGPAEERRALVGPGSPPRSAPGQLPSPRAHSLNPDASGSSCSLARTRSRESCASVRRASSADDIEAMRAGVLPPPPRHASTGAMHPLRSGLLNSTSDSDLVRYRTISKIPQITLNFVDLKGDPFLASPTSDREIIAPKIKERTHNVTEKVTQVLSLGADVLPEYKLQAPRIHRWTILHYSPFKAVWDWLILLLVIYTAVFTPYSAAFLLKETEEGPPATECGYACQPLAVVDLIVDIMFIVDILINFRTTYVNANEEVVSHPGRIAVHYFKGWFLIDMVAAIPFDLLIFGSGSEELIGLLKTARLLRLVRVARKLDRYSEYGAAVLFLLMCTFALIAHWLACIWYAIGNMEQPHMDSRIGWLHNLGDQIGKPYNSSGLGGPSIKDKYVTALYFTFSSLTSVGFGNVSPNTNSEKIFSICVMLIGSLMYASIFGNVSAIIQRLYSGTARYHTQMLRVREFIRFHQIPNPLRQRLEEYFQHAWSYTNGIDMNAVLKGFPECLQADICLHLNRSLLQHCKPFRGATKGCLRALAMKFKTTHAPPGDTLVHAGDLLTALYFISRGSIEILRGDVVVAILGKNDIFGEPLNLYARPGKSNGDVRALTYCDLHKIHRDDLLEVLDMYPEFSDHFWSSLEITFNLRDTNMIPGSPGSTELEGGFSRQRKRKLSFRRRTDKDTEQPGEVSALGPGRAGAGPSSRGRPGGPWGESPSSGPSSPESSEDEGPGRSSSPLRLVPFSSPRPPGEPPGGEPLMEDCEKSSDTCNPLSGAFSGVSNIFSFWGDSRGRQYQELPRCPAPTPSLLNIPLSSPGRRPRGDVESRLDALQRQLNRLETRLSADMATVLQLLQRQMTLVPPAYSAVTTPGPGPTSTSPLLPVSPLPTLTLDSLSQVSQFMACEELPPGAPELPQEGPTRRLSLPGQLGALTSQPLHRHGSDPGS

Structure (SMILES) | hERG current change (%, negative = inhibition) at 1uM [%]
O=C(NCc1cccnc1)c1cccc(S(=O)(=O)N2CCCCC2)c1 | 13.5
Cc1cnc(C(=O)OCC(=O)NC2CCCCCCC2)cn1 | 3.97
COc1ccc(C2(O)CCN(C(=O)c3ccc4c(c3)OCO4)CC2)cc1 | 8.68
CCCc1cc(=O)oc2cc(OCc3cccc(OC)c3)c(Cl)cc12 | 8.83
O=C1CC(C(F)(F)C(F)(F)C(F)(F)C(F)F)=Nc2ccccc2N1 | -1.58
CC(C)[C@H](NC(=O)Nc1cccc(Br)c1)C(=O)O | 6.27
CCOC(=O)c1c(NC(=O)C2COc3ccccc3O2)sc2c1CCN(Cc1ccccc1)C2.Cl (centres unmarked) | 4.58
COc1ccc(-n2c(=S)[nH]c3cc(C(=O)NCc4ccccc4)ccc3c2=O)c(OC)c1 | 11.8
O=C(CCCN1C(=O)c2ccccc2C1=O)NC1CCCCCC1 | 2.82
C/C(=N\NC(=O)Cc1cccn1C)c1ccco1 | 13.1
Cc1cc2nnn(-c3nnc(-c4ccccc4)c4ccccc34)c2cc1C | 5.53
COc1ccccc1/C=C/C=N/NC(=O)Cc1cccn1C | 12
COC(=O)c1c(-c2snnc2C)n[nH]c1C | 5.01
CN1CCc2c(c3ccccc3n2C)C1.Cl | 13.8
CC(C)(C)N(NC(=O)c1ccccc1)C(=O)c1ccc(C(=O)N(NC(=O)c2ccccc2)C(C)(C)C)cc1 | 6.89
COC(=O)c1sc2ccccc2c1NC(=O)c1ccc(S(=O)(=O)N2CCCCC2C)cc1 (centres unmarked) | -3.24
Cc1nn(CC(=O)NCc2ccc(C(=O)O)cc2)c(C)c1[N+](=O)[O-] | 13.2
COCCSc1ccccc1C(=O)Nc1ccc2c(c1)OCCO2 | 9.03
CC(=O)Nc1ccc(Oc2nc(-c3ccccn3)nc3ccccc23)cc1 | 12

Structure (SMILES) | hERG current change (%, negative = inhibition) at 1uM [%]
O=C(COC(=O)CNC(=O)c1ccccc1)Nc1nc(-c2ccccc2)cs1 | 10.3
O=C(COc1coc(CN2CCc3ccccc32)cc1=O)Nc1cccc(F)c1 | 15.8
COc1cccc(CNC(=O)COc2cccc3c2OC(C)(C)C3)c1 | 11.2
CCOc1ccccc1CN1CCN(Cc2ccc3cccc(OC)c3n2)CC1CCO (centres unmarked) | -9.58
O=C(NCc1ccc(F)cc1)c1ccc[nH]1 | 7.17
O=S(=O)(c1ccc(Br)cc1)N1CCCN(Cc2cccc(F)c2)CC1 | 4.78
COc1cc2c(cc1OC)C1=C(C#N)CN(CC(=O)O)CN1CC2 | 9.68
Cc1oc(-c2ccccc2F)nc1CS(=O)(=O)CC(=O)NCCCN1CCN(C)CC1 | 14.1
CCOc1ccc(NC(=O)C2CCCN(c3nc(C)cc(C)n3)C2)cc1 (centres unmarked) | 16.5
CCOc1ccc(CNC(=O)Nc2ccccc2)cc1 | 14.3
CCC(C)[C@H](NC(=O)NCc1ccccc1Cl)C(=O)O (some centres unmarked) | 6.22
COC(=O)[C@@H](NC(=O)c1cc(COc2cncc(Cl)c2)on1)c1ccccc1 | 7.99
Cc1ccc(C(=O)OCC(=O)NC(=O)c2ccc(C(C)(C)C)cc2)c(O)c1 | 12.7
O=C(OCc1nnc(-c2ccccc2)o1)c1cc([N+](=O)[O-])ccc1Cl | 8.93
CCOC(=O)N1CCC(NC(=O)CS(=O)(=O)Cc2nc(-c3ccccc3Cl)oc2C)CC1 | 17.3
CC[C@H](C)[C@@H](C(=O)N1CCNCC1)n1cc([C@@H](N)Cc2ccc(O)cc2)nn1.Cl | 25.5
CCC(C)N(C(=O)COc1ccc(-c2nnco2)cc1)C1CCS(=O)(=O)C1 (centres unmarked) | 9.14
COCC(C)NC(=O)c1cc(-c2cccc(OC)c2)on1 (centres unmarked) | 24
Cc1ccc(S(=O)(=O)N2CCCC(C(=O)NCC3CCCO3)C2)cc1 (centres unmarked) | 15.9

Structure (SMILES) | hERG current change (%, negative = inhibition) at 1uM [%]
CCn1nnnc1NC(=O)c1ccc2ccccc2c1 | 1
COCCn1nnnc1C(c1ccc(OC)cc1)N1CCN(c2ccccc2F)CC1.Cl (centres unmarked) | 15.8
CCCCCCCCN1[C@@H](CC(=O)O)c2cc(F)ccc2S1(=O)=O | 6.88
CCOc1ccc(CCNC(=O)CCn2nc(C)c3c(C)n(-c4ccccc4)nc3c2=O)cc1 | 3.35
COc1cccc(NC(=O)COc2coc(CN3CCc4ccccc4C3)cc2=O)c1 | 6.62
Fc1ccc(Br)cc1C1C=C(c2ccc(Br)s2)Nc2ncnn21 (centres unmarked) | 6.52
COc1ccccc1-c1ccc(/C=N/O)o1 | 14.8
CCCC(CCC)C(=O)NCCN1CCOCC1.Cl | 1.28
O=[N+]([O-])c1ccc(Cl)c(NC2=NCCCCC2)c1 | 13.5
CCOC(=O)C1=C(COC(=O)c2cccc(Cl)c2)NC(=O)NC1C (centres unmarked) | 10.6
CNS(=O)(=O)c1ccc(CCC(=O)N2CCOCC2)cc1 | 12.8
CC1Cc2cc(S(=O)(=O)N3CCN(c4cccc(Cl)c4)CC3)ccc2N1C(=O)C1CC1 (centres unmarked) | 24.6
COc1ccc(C2CC2/C(=N/O)c2ccccn2)cc1 (centres unmarked) | 12.7
O=C(CNC(=O)c1ccncc1)N/N=C/c1cccc([N+](=O)[O-])c1 | 8.46
Cc1cccc(C(=O)Nc2cccc(S(=O)(=O)NCc3ccco3)c2)c1 | 5.79
Cc1noc(C)c1C(=O)N1CCC(CO)(Cc2ccccc2)CC1 | 4.26
COCCN(CCNC(=O)c1ccc(NC2=NC3CS(=O)(=O)CC3S2)cc1)Cc1ccco1 (centres unmarked) | -4.24
O=c1c2ccccc2nc(/C=C\c2ccccc2[N+](=O)[O-])n1-c1ccccc1O | -6.33
